# Data taken from the supplement of paper PMC6660600, “Odorant Inhibition in Mosquito Olfaction” (iScience, 2019).
# Where a name gives a salt, the structure may show the parent alone. This is one part of the list. Repeats are few or missing, and single values can be far off.
# Tested on: CquiOR32-CquiOrco
# Assay: current response class (signed ordinal: positive = inward/excitatory, negative = outward/inhibitory) (ordinal score (-3..3)); higher = stronger inward (excitatory) current
# Details: 1 mM; holding potential (mV): -80
row,SMILES,current response class
1,c1ccc(Oc2ccccc2)cc1 [phenylether],active: 1
2,"COC(=O)c1ccccc1N(C)C [methyl N,N-dimethylanthranilate]",inactive: 0
3,CC1=CC=C(C(C)C)CC1 [α-terpinene],active: -1
4,CCCCCCCCCCCCCC(=O)OC [methyl myristate],inactive: 0
5,C=CCc1ccc(OC(C)=O)c(OC)c1 [eugenyl acetate],inactive: 0
6,CC(O)C(=O)O (racemic) [(±)-lactic acid],inactive: 0
7,CCC/C=C/C=O [(E)-2-hexenal],inactive: 0
8,CCCCCC(=O)OCC [ethyl hexanoate],inactive: 0
9,CCCCCCC(C)O (stereo unspecified) [2-octanol],inactive: 0
10,CCCCCCCCO [1-octanol],inactive: 0
11,CCOC(=O)CC(C)O (stereo unspecified) [ethyl 3-hydroxybutanoate],active: 2
12,CCCCCO [1-pentanol],inactive: 0
13,CCC/C=C/COC(C)=O [(E)-2-hexenyl acetate],inactive: 0
14,CC(=O)OCC(C)C [isobutyl acetate],inactive: 0
15,CC(=O)/C=C/C1C(C)=CCCC1(C)C (stereo not drawn) [α-ionone],inactive: 0
16,C=C/C(C)=C/CC=C(C)C [ocimene],active: -0.5
17,CC(C)=CCC[C@@H](C)CC=O (racemic) [(±)-citronellal],inactive: 0
18,CCCCCCCO [1-heptanol],inactive: 0

row,SMILES,current response class
1,CCCCCCCCCCCCCCCCCC(=O)OCC [ethyl stearate],inactive: 0
2,CC1=CCC(=C(C)C)CC1 [terpinolene],active: -1
3,CCOC(=O)CCCCCCCCC(=O)OCC [diethyl sebacate],inactive: 0
4,COC(C)=O [methyl acetate],active: 1
5,C=CC(O)CCCCC (stereo unspecified) [1-octen-3-ol],inactive: 0
6,C=CCc1ccc(O)c(OC)c1 [eugenol],active: -1
7,CC(C=O)=Cc1ccccc1 [α-methylcinnamaldehyde],active: 1
8,CCCCCC/C=C\CCCCCCCC(=O)O [palmitoleic acid],inactive: 0
9,CCCCCCCCCCOC(C)=O [decyl acetate],inactive: 0
10,CC(=O)OCCC(C)C [isopentyl acetate],inactive: 0
11,C=CC(O)CCCC (stereo unspecified) [1-hepten-3-ol],active: 1
12,"CC(O)C(C)O (stereo unspecified) [2,3-butanediol]",inactive: 0
13,CC#CCCO [3-pentyn-1-ol],inactive: 0
14,CCCC(=O)OCC [ethyl butanoate],inactive: 0
15,"CC(=O)OC/C=C(\C)CC/C=C(\C)CCC=C(C)C [(E,E)-farnesyl acetate]",inactive: 0
16,O=COCc1ccccc1 [benzyl formate],inactive: 0
17,CCC(C)C(=O)OCCC(C)C (stereo unspecified) [3-methylbutyl 2-methylbutanoate],inactive: 0
18,CC1CCC(O)CC1 (stereo unspecified) [4-methylcyclohexanol],active: 1
